# The supplement of paper PMC3724861
# The other results are listed elsewhere or left out.
# Test system: T1, Caupolican (Caup) homeodomain DNA-binding domain
# T1 sequence: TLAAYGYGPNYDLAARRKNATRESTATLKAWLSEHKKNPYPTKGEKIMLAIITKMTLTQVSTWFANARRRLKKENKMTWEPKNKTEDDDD
# Assay: PBM E-score (8-mer, recovered from the published 9-mer minima) (E-score (dimensionless, -0.5 to 0.5)); Drosophila protein; higher = stronger relative binding preference, active = 0.31 or more
# Outline: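 Caup's homeodomain DNA-binding domain (residues 214-303) was produced by in vitro transcription and translation and applied at 100 nM to custom-designed protein binding microarrays. Each value is an enrichment score giving relative binding preference for a short DNA word; higher means stronger. Published 9-mer scores were the minimum of their two constituent 8-mer scores, and the 8-mer values were recovered from those minima. A cutoff of 0.31 marks candidate binding sequences.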
row,Sequence,PBM E-score
1,ATAACAGG,inactive: 0.155
2,CGGGAGTC,inactive: -0.129
3,CGTTAACA,inactive: 0.164
4,AATAACGT,inactive: 0.135
5,GCGAAAAC,inactive: -0.102
6,CATGGATA,inactive: 0.157
7,AACACTTA,inactive: 0.208
8,CTGGGCGA,inactive: -0.196
9,AAGGCGAT,≥ -0.0088
10,ATCGCGAA,inactive: -0.00496
11,CGAGAAGA,inactive: -0.0787
12,CGAAATCA,inactive: 0.113
13,GCCTCACA,inactive: -0.0407
14,CGAGTTGC,inactive: 0.00414
15,ATCGACCG,inactive: -0.0554
16,ATCTGCAT,inactive: 0.107
17,ACTGTTAT,inactive: 0.161
18,AAGTAACT,inactive: 0.101
19,TCAAAAAA,inactive: 0.0309
20,AGTGATAG,inactive: 0.0983
21,TGCACGAA,inactive: 0.129
22,ACAAACGA,≥ 0.148
23,TCAGTGGA,inactive: -0.0671
24,CCAGCCGG,inactive: -0.247

row,Sequence,PBM E-score
1,AGGTAAGC,inactive: -0.095
2,TCAACCCA,inactive: -0.0421
3,ATGAGTGA,≥ 0.0935
4,GCAGCCAA,inactive: -0.0315
5,CATGGGGC,inactive: -0.118
6,CAGAAGTA,inactive: 0.068
7,CTCGGCTC,inactive: -0.153
8,ATTCTGAC,inactive: 0.0764
9,CCAGAATC,inactive: -0.0272
10,GCTCTAAC,inactive: -0.0729
11,CACTGAGG,inactive: -0.148
12,GATAATCA,inactive: 0.0651
13,AATTGAAA,inactive: 0.073
14,TGTAGTAA,active: 0.376
15,CATCATTC,inactive: 0.0951
16,ATGTGAAG,inactive: 0.163
17,CTTGACTA,inactive: 0.0303
18,AGCTGGAA,inactive: -0.0742
19,CCGAAACA,inactive: 0.125
20,ATTCCTCA,inactive: 0.0774
21,ACACGTCA,active: 0.325
22,ACGCACAT,≥ 0.108
23,ATAGATAG,inactive: 0.0932
24,TACGGGCA,≥ -0.014

row,Sequence,PBM E-score
1,CTCGCGAC,inactive: -0.0978
2,CCAAGACA,inactive: 0.0664
3,AGTATCAT,inactive: 0.238
4,AGTCTTTA,inactive: 0.0559
5,AGACGGCG,inactive: -0.18
6,CTCATGAC,inactive: 0.0559
7,AACTAGCG,inactive: -0.00906
8,AATCTGTG,inactive: 0.071
9,AGGCGTGG,inactive: -0.284
10,AACCAGTC,inactive: 0.00925
11,CCAAGCAG,inactive: -0.157
12,ACACTCCA,inactive: 0.0415
13,GGATCTAA,inactive: -0.071
14,CGCTTACG,inactive: -0.151
15,ATTACGTG,inactive: 0.16
16,GAGGGATA,inactive: -0.0315
17,CTAACCCC,inactive: -0.214
18,GTCGGCTA,inactive: -0.0125
19,GGATCGTA,inactive: 0.0632
20,CCATTGAA,inactive: 0.0124
21,CTATCAGC,inactive: 0.0543
22,GTTTGATA,inactive: 0.137
23,CGCAATTA,inactive: -0.0107
24,AAAGTACG,inactive: -0.0302

row,Sequence,PBM E-score
1,GTCATACA,inactive: 0.233
2,AATAGTAG,inactive: 0.0364
3,ACAAAGCT,inactive: 0.0752
4,ACTTTCAC,≥ 0.0535
5,CAACCGTC,inactive: -0.0286
6,CCTAGCGC,inactive: -0.199
7,AACACACT,inactive: 0.256
8,AGTGCATG,inactive: 0.0912
9,ATATCGCC,inactive: 0.0522
10,GCCTTCAA,inactive: -0.0384
11,ATATTGCA,inactive: 0.104
12,TAGCCAAA,inactive: -0.0244
13,CTCTAGTC,inactive: -0.0877
14,TGACCCAA,inactive: 0.0379
15,ATTATACC,inactive: 0.104
16,AGCTGGCA,inactive: -0.13
17,AGGGGGTA,inactive: -0.211
18,CCTTGCGA,inactive: -0.125
19,ATCAGAAC,inactive: 0.107
20,AAACTGGC,inactive: -0.096
21,GCAACGGC,inactive: -0.0473
22,CTTTCGAC,inactive: -0.0343
23,ATACGGGG,inactive: -0.0872
24,AGTCGGAG,inactive: -0.15

row,Sequence,PBM E-score
1,GGCACGTA,inactive: 0.00967
2,AGCCCTGG,inactive: -0.211
3,GGCCCTCA,inactive: -0.313
4,GCCACTAC,inactive: -0.152
5,ACACATTA,inactive: 0.267
6,ACGCATAA,inactive: 0.0794
7,ACCGTCAC,inactive: -0.111
8,CTTAGGCA,inactive: -0.0925
9,TATGCGAA,inactive: -0.0523
10,CGTTGTAG,inactive: 0.154
11,AACGCTTA,inactive: -0.0409
12,GACATCTC,inactive: 0.159
13,AAGAGGTA,inactive: 0.0556
14,CTGGGGTC,inactive: -0.163
15,CGCTATTA,inactive: 0.036
16,AGGTATCG,inactive: -0.0139
17,CATTTGGG,inactive: -0.0406
18,AAGTCTAT,inactive: 0.0708
19,CAAAGGAA,inactive: 0.131
20,GAGCCGTA,inactive: -0.076
21,GCAATTCA,inactive: -0.0152
22,CGCACGTC,inactive: -0.0953
23,CACCAATA,inactive: 0.0966
24,ACCAGATA,≥ 0.153

row,Sequence,PBM E-score
1,AGACTAAT,inactive: 0.0912
2,TAGAGTGA,inactive: 0.00292
3,CATGTAAC,active: 0.431
4,ACCTGCTC,inactive: -0.00329
5,CCCCACTC,inactive: -0.193
6,AGCTGGCG,inactive: -0.198
7,AACTAGGT,≥ 0.123
8,CCTGGACG,inactive: -0.136
9,ACGCAATC,inactive: -0.0194
10,ACGTTCCA,inactive: 0.0136
11,AATGACTG,inactive: 0.0933
12,AACTGAGG,inactive: -0.0316
13,GGTGAACA,inactive: 0.183
14,AGCAATTA,inactive: 0.0226
15,GCGCCTTA,inactive: -0.112
16,AACCACAA,inactive: 0.0387
17,AGGTACAA,active: 0.345
18,CGAAGCCA,inactive: -0.167
19,ATTCCGAC,inactive: 0.0514
20,CGACAGAC,inactive: 0.0543
21,CGGAGGCA,≥ -0.131
22,AAATCTCT,inactive: 0.0724
23,GTAACTAC,inactive: 0.296
24,AACCTGTA,inactive: 0.217
